Experimental data: PubChem BioAssay AID256 (DTP/NCI, 2004)
Values joined by “and” are separate entries in the source; they are usually repeats but may differ in a detail not shown here. Identical values can stand only once. Further values from the same series stand in other lists. Inconclusive results and toxic doses are left out.

Tested on: CD2F1 mice, L1210 leukemia ip, survival T/C
Test: NCI In Vivo Anticancer Drug Screen. Data for tumor model L1210 Leukemia (intraperitoneal) in CD2F1 (CDF1) mice
Details: higher = longer survival
Outline: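 Mice carrying a transplanted tumor received test compound or vehicle alone. The value is the measurement in the treated group divided by that in the vehicle-treated control group.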

In the case of `Nc1ncn(C2OC(CO)C(O)C2O)c(=O)n1` (stereo not given), the T/C (endpoint: mean survival time, dose: 100.0 mg/kg/injection, schedule: Q01DX001 (ip), vehicle: saline) is reported as 161 % of control and 169 % of control, the T/C (endpoint: median survival time, dose: 0.16 mg/kg/injection, schedule: Q01DX009 (ip), vehicle: saline) is reported as 117 % of control and the T/C (endpoint: median survival time, dose: 0.31 mg/kg/injection, schedule: Q01DX009 (ip), vehicle: saline) is reported as 123 % of control. For the same compound, the T/C (endpoint: median survival time, dose: 0.38 mg/kg/injection, schedule: Q01DX009 (ip), vehicle: saline) was 151 % of control, the T/C (endpoint: median survival time, dose: 0.5 mg/kg/injection, schedule: Q01DX009 (ip), vehicle: saline) was 156 % of control and the T/C (endpoint: median survival time, dose: 0.75 mg/kg/injection, schedule: Q01DX009 (ip), vehicle: saline) was 158 % of control and 175 % of control. For the same compound, the T/C (endpoint: median survival time, dose: 0.94 mg/kg/injection, schedule: Q04DX003 (ip), vehicle: saline) was 111 % of control, the T/C (endpoint: median survival time, dose: 1.0 mg/kg/injection, schedule: Q01DX009 (ip), vehicle: saline) was 168 % of control and 181 % of control and the T/C (endpoint: median survival time, dose: 1.0 mg/kg/injection, schedule: Q01DX009 (oral), vehicle: saline) was 100 % of control. For the same compound, the T/C (endpoint: median survival time, dose: 1.0 mg/kg/injection, schedule: Q04DX003 (ip), vehicle: saline) was 114 % of control, the T/C (endpoint: median survival time, dose: 1.25 mg/kg/injection, schedule: Q01DX009 (ip), vehicle: saline) was 162 % of control and the T/C (endpoint: median survival time, dose: 1.5 mg/kg/injection, schedule: Q01DX009 (ip), vehicle: clinical formulation) was 214 % of control. For the same compound, the T/C (endpoint: median survival time, dose: 1.5 mg/kg/injection, schedule: Q01DX009 (ip), vehicle: saline) was 192 % of control and 202 % of control and 212 % of control, the T/C (endpoint: median survival time, dose: 1.88 mg/kg/injection, schedule: Q04DX003 (ip), vehicle: saline) was 117 % of control and the T/C (endpoint: median survival time, dose: 2.0 mg/kg/injection, schedule: Q01DX005 (ip), vehicle: saline) was 195 % of control. The T/C (endpoint: median survival time, dose: 2.0 mg/kg/injection, schedule: Q01DX009 (ip), vehicle: saline) was 207 % of control and 244 % of control, the T/C (endpoint: median survival time, dose: 2.0 mg/kg/injection, schedule: Q04DX003 (ip), vehicle: saline) was 118 % of control and the T/C (endpoint: median survival time, dose: 2.5 mg/kg/injection, schedule: Q01DX009 (ip), vehicle: saline) was 262 % of control. The T/C (endpoint: median survival time, dose: 3.0 mg/kg/injection, schedule: Q01DX009 (ip), vehicle: clinical formulation) was 111 % of control, the T/C (endpoint: median survival time, dose: 3.0 mg/kg/injection, schedule: Q01DX009 (ip), vehicle: saline) was 118 % of control and 239 % of control and 291 % of control and the T/C (endpoint: median survival time, dose: 4.0 mg/kg/injection, schedule: Q01DX005 (ip), vehicle: saline) was 269 % of control. For the same compound, the T/C (endpoint: median survival time, dose: 4.0 mg/kg/injection, schedule: Q01DX009 (ip), vehicle: saline) was 280 % of control and 310 % of control, the T/C (endpoint: median survival time, dose: 4.6 mg/kg/injection, schedule: Q03HX024 (ip), vehicle: DMSO) was 731 % of control and the T/C (endpoint: median survival time, dose: 5.0 mg/kg/injection, schedule: Q01DX009 (ip), vehicle: saline) was 212 % of control. For the same compound, the T/C (endpoint: median survival time, dose: 5.18 mg/kg/injection, schedule: Q04DX002 (ip), vehicle: saline) was 164 % of control, the T/C (endpoint: median survival time, dose: 6.0 mg/kg/injection, schedule: Q01DX009 (ip), vehicle: saline) was 258 % of control and the T/C (endpoint: median survival time, dose: 6.0 mg/kg/injection, schedule: Q03HX024 (ip), vehicle: saline) was 696 % of control. For the same compound, the T/C (endpoint: median survival time, dose: 7.5 mg/kg/injection, schedule: Q04DX003 (ip), vehicle: saline) was 158 % of control, the T/C (endpoint: median survival time, dose: 8.0 mg/kg/injection, schedule: Q01DX005 (ip), vehicle: saline) was 294 % of control and the T/C (endpoint: median survival time, dose: 8.0 mg/kg/injection, schedule: Q01DX009 (ip), vehicle: saline) was 120 % of control. For the same compound, the T/C (endpoint: median survival time, dose: 8.0 mg/kg/injection, schedule: Q01DX009 (oral), vehicle: saline) was 156 % of control, the T/C (endpoint: median survival time, dose: 8.0 mg/kg/injection, schedule: Q04DX003 (ip), vehicle: saline) was 179 % of control and the T/C (endpoint: median survival time, dose: 8.64 mg/kg/injection, schedule: Q04DX002 (ip), vehicle: saline) was 185 % of control. For the same compound, the T/C (endpoint: median survival time, dose: 9.0 mg/kg/injection, schedule: Q03HX024 (ip), vehicle: saline) was 695 % of control, the T/C (endpoint: median survival time, dose: 9.3 mg/kg/injection, schedule: Q03HX024 (ip), vehicle: DMSO) was 731 % of control and the T/C (endpoint: median survival time, dose: 10.0 mg/kg/injection, schedule: Q01DX009 (ip), vehicle: saline) was 107 % of control. For the same compound, the T/C (endpoint: median survival time, dose: 13.0 mg/kg/injection, schedule: Q03HX024 (ip), vehicle: saline) was 695 % of control, the T/C (endpoint: median survival time, dose: 14.4 mg/kg/injection, schedule: Q04DX002 (ip), vehicle: saline) was 211 % of control and the T/C (endpoint: median survival time, dose: 15.0 mg/kg/injection, schedule: Q04DX003 (ip), vehicle: saline) was 198 % of control. For the same compound, the T/C (endpoint: median survival time, dose: 16.0 mg/kg/injection, schedule: Q01DX005 (ip), vehicle: saline) was 98 % of control and 107 % of control, the T/C (endpoint: median survival time, dose: 16.0 mg/kg/injection, schedule: Q01DX009 (ip), vehicle: saline) was 95 % of control and the T/C (endpoint: median survival time, dose: 16.0 mg/kg/injection, schedule: Q01DX009 (oral), vehicle: saline) was 210 % of control. The T/C (endpoint: median survival time, dose: 16.0 mg/kg/injection, schedule: Q04DX003 (ip), vehicle: saline) was 215 % of control, the T/C (endpoint: median survival time, dose: 18.7 mg/kg/injection, schedule: Q03HX024 (ip), vehicle: DMSO) was 731 % of control and the T/C (endpoint: median survival time, dose: 20.0 mg/kg/injection, schedule: Q03HX024 (ip), vehicle: saline) was 696 % of control. For the same compound, the T/C (endpoint: median survival time, dose: 24.0 mg/kg/injection, schedule: Q04DX002 (ip), vehicle: saline) was 215 % of control, the T/C (endpoint: median survival time, dose: 30.0 mg/kg/injection, schedule: Q03HX024 (ip), vehicle: saline) was 695 % of control and the T/C (endpoint: median survival time, dose: 30.0 mg/kg/injection, schedule: Q04DX003 (ip), vehicle: saline) was 172 % of control. For the same compound, the T/C (endpoint: median survival time, dose: 32.0 mg/kg/injection, schedule: Q01DX009 (oral), vehicle: saline) was 106 % of control, the T/C (endpoint: median survival time, dose: 40.0 mg/kg/injection, schedule: Q04DX002 (ip), vehicle: saline) was 122 % of control and the T/C (endpoint: median survival time, dose: 75.0 mg/kg/injection, schedule: Q03HX024 (ip), vehicle: DMSO) was 108 % of control. The T/C (endpoint: median survival time, dose: 150.0 mg/kg/injection, schedule: Q01DX009 (ip), vehicle: saline) was 510 % of control, the T/C (endpoint: median survival time, dose: 150.0 mg/kg/injection, schedule: Q03HX024 (ip), vehicle: DMSO) was 93 % of control and the T/C (endpoint: median survival time, dose: 720.0 mg/kg/injection, schedule: Q01DX005 (ip), vehicle: DMSO) was 107 % of control. The T/C (endpoint: median survival time, dose: 800.0 mg/kg/injection, schedule: Q01DX009 (oral), vehicle: DMSO) was 101 % of control.
